Results taken from the RNAGym collection of RNA variant scans (doi:10.7554/elife.90254).
The source gives no read counts; variants with many changes may rest on few reads.

B1: LINE1-mini (parent)
chain: GGCAGAGCUCAACACAGCGUGGCAAAGUGGCUGUGGCUAGACUGCC

Variants of: B1
Experiment: self-cleavage, relative activity (ratio to wild type); higher = more cleavage; in vitro, sequencing; the parent is a self-cleaving ribozyme

| Variant | self-cleavage |
| --- | --- |
| G17C C23U C46A | 0.57 |
| A11C G30U C37A | 0.03 |
| G35U G40C C42A | 0.03 |
| G2U C10U G21A A25G G29A U38A G40C | 0.01 |
| C13G U20G G27C U28G C31G | 0.02 |
| C8U G21A G36U U38A C42A | 0.09 |
| G2C C18A A24G | 0.06 |
| A4G U28C C42A | 0.22 |
| G2C C13U C18G G21U U38C C45A C46G | 0 |
| G5A A11G C13G C15A G40C | 0.01 |
| C10U A11U A25C G33U C37U | 0.02 |
| G7C G21A C23U G27U U34G | 0.02 |
| A6C C8U C31U C42U | 0.21 |
| G22U G30U A39C | 0.15 |
| A6G U20A G21A U32G G33C U38A | 0 |
| U9G C23U G44C | 0.02 |
| U38C G40A C45A C46G | 0.01 |
| A4G C8G A11C G19C G35U G36U | 0 |
| G1A G7C A24G A39C | 0.93 |
| C3U C10A G27A G33U C46A | 0.41 |
| G1U G2C A6C C10A A12C A14C G33C | 0.01 |
| G2A C10A C18A G19U | 0.04 |
| A12U G17A A26U G44C C46U | 0.02 |
| C18A A25U A39C | 0 |

| Variant | self-cleavage |
| --- | --- |
| G2A A14U G22A A26U G40C C42G | 0.22 |
| G1C C3G G7A G29C C42G | 0.33 |
| G19A G29U G36A C37U | 0.16 |
| A12G A26C G35A G40U | 0.01 |
| A4G G19U G30A | 0.69 |
| G1A C13U G27A G44C | 0.25 |
| A4U G27U G35A G40C | 0.02 |
| G7C G27U G35C G40U | 0.03 |
| C37A A39G C45G | 0.05 |
| C8U A16G U34C U38A U43C | 0.04 |
| C8U G17U U32G | 0.06 |
| G30A C31U G36U | 0.43 |
| C8U A11G A26U C31G | 0.02 |
| G17U C18A G35C | 0.2 |
| G2U C3U A25G U28G | 0.03 |
| C8G C13G A16U G27A G29U C37G | 0.06 |
| A12G G27U C31G U34G A41U | 0.01 |
| C3A C15A C23G A39C | 0.03 |
| G5A C37A U38C | 0.04 |
| G2A A4G C37A C45G | 0.15 |
| A4U A25G C37G | 0.01 |
| C13G G30U U32A G40A C42U | 0.02 |
| G33C G36C C42G | 0.02 |
| A6G C13U G35U | 0.19 |

| Variant | self-cleavage |
| --- | --- |
| C10A G27U G33C | 0.02 |
| C13A C18A C31G | 0.07 |
| C3A A6G G7A A11U C15A A41U | 0.02 |
| G17A C31G U38C | 0.1 |
| C13U G21C G22U | 0.29 |
| G2C G19U U34G C37U | 0.07 |
| C10G C31A U38G | 0.01 |
| C15G G22U G33C | 1.12 |
| G2U A12G U28C | 0 |
| G1A C42A C45A | 0.39 |
| C13U G33C G36C C45U | 0.03 |
| G1C G33U A41U C42U G44C | 0.01 |
| A14C A16G G19U A41G C45A | 0 |
| G2C A12U G27C | 0.02 |
| A6U U9G C31U A39G | 0.06 |
| G1A G21U G35C | 0.11 |
| A6U U9C G40U | 0.05 |
| A11U C13G C18A C23A G29C | 0.01 |
| A16C G29A C31A G35A C45G | 0.01 |
| U9A A24G A25C A26U G40A | 0 |
| G5U A6C C10G G17U G44C | 0 |
| A12G G17C C37G C46U | 0 |
| C13U G21U A26G | 0.03 |
| A24G G30A A41G | 0.89 |

| Variant | self-cleavage |
| --- | --- |
| A6G C13U A14C C31U | 0.08 |
| C3A A12G A14C G33C | 0.07 |
| A12U U20A C37U C45G | 0 |
| G5A C23U G27U C45G | 0.14 |
| G7A A25U U34G | 0.06 |
| C8U A11U U28A G35C | 0.02 |
| G19A G22C C46A | 1.32 |
| A4C A6U C10A G17A U32C | 0.01 |
| G40U G44U C46G | 0.01 |
| C10A C15U G17U G29C | 0.02 |
| A25C U28G G30A | 0.41 |
| C10G A11U C37U | 0.01 |
| G5C U20A A24U G44A C45G | 0.02 |
| C3A A11G G27U C31U | 0.02 |
| A6U C10G G19U A25G A26G | 0.02 |
| A6U G29C G35U C42A C45G | 0.01 |
| G21U A41U C46A | 2.15 |
| G5A A26G G30U U38A | 0.01 |
| G1U C8A C23A C45A C46G | 0.1 |
| C18A G30C U38A G40A | 0.14 |
| G5A C31G G33A | 0.03 |
| A12G G35U C37U U38C G40A C45A | 0 |
| G7C C23A C31G | 0.01 |
| C13G U20A C37U | 0.07 |

| Variant | self-cleavage |
| --- | --- |
| A25G U34G A41G G44C | 0.04 |
| A6U C13U G17A G35U G40C | 0.61 |
| A16U U34C G44C | 0.15 |
| G2A C3G A11C G19U U43C | 0.03 |
| A16G G33U U38C | 0.03 |
| C15U G36U A39U | 0.05 |
| C3A G30A C46U | 0.16 |
| G2C U9A U32G G36U | 0.06 |
| C8A C10G G17A C37A C42G | 0.01 |
| C3U U9C A39U U43G | 0 |
| G2A G22C G35A U38G | 0.02 |
| G1U G22U C46U | 0.29 |
| G17C C23G U32C | 0.01 |
| C8A C42A C46A | 0.11 |
| C8U A39C C45U | 0.25 |
| G17C U20G C42A C46A | 0.02 |
| G1U C13U A26U U43A C46U | 0.14 |
| U9G C10U G22U G27A U32A | 0.04 |
| A39C C42U U43G G44U C46U | 0.13 |
| C8A G27A C45G | 0.56 |
| G5U C31A U32A G40U | 0.02 |
| A11C A24U C45A | 0 |
| G17U C31G G35C | 0.02 |
| G2U A14C C31A | 0.01 |

| Variant | self-cleavage |
| --- | --- |
| C37A A39U C42U | 0.03 |
| C18A C23G U32G G35U U38A | 0.18 |
| C15U G30U U32C C45U | 0.04 |
| C15A C18G A41U | 0.01 |
| A6G G21A G30U | 0.11 |
| G19A C23U G33A G44A | 0.13 |
| C8A C31U G33U U34C U38A | 0.02 |
| G2A C8A C18U C23G | 0.68 |
| C3G G5U C13A G40A | 0.1 |
| C3U C10G A14C C15A | 0.02 |
| C3A A12G A39U C45A | 0.01 |
| C13U C31U G33C | 0.27 |
| C15A A26G G29U G30A C37A C42G G44A | 0.02 |
| G5C C8U A12G U20A G27A U34G | 0.02 |
| G17U G29A G40A | 0.05 |
| A4G U32A G35U C37G | 0.16 |
| A16C A25C G27C G29U | 0.81 |
| A4U A11U C31U C46G | 0.01 |
| A14G A26U G40U | 0.03 |
| C3U G21U G27U | 0.26 |
| U9G G22A G30C G44U | 0.06 |
| G2C A6G G21U | 0.03 |
| C3A U9A C23A G29A C45G | 0.13 |
| G2U A12G U20A C23A | 0.03 |

| Variant | self-cleavage |
| --- | --- |
| G7A C10A A11G G29U | 0.01 |
| A16G U20G G44U C45A | 0.05 |
| C8A G21U C31G U34G | 0.04 |
| A14C G21U U28G C42U | 0.06 |
| G7U G35U G44A | 0.16 |
| C3A U32G C46G | 0.44 |
| U9A G19U U38A | 0.01 |
| G5A A6C G17A C23U G35A C37A A41C | 0.02 |
| G29U U38G G40A C46A | 0.01 |
| G1C G22C C23G U28A U32A | 0.02 |
| C8U C18A G21U G22A G30A C42U | 0.22 |
| C13G U28G C31U | 0.07 |
| G5C A6U C8A G21U G35A C37U | 0.06 |
| A6G G29A C46U | 0.17 |
| G1U A6G A14U G17U A41C | 0.04 |
| C23A A26U G27C C31G C46G | 0.06 |
| G2C G5C A11G U28G C45G | 0.01 |
| G1A G2U U9G C15U U28C G36A G40C | 0.03 |
| U9A U28G C37U C45A | 0.23 |
| U9A G33U A41G | 0.06 |
| G7U A24C A25C G29C | 0.02 |
| U9G A14U G27C | 0.14 |
| A6C C31G G40C U43G | 0.02 |
